T1: UNK ZnF1-3 (human, UniProt Q9C0B0 31-174)
T1 sequence: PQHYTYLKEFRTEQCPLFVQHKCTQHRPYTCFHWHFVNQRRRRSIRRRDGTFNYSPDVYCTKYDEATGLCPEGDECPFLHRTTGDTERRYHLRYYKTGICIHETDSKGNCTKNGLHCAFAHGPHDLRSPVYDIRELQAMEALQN

B1: chr2:198351390:198351391:-_ENSG00000144381_ENST00000345042|hu_hu|hu_hu_hu_mus_False|58_108 (ssRNA)
RNA: GGGAGUUCUACAGUCCGACGAUCUCAUUCUCACUCUCCACAGAAAGGCUGCUUCUGAACUCUCAUGUGGUGACACAGCACUAAAAUCCUGAUGCUCACAGAACAGUAGAGAUGCCUCAGUGAUUUAAGUUGAAAGCAGGACACCAACAGAGGAUUGAGCAUCA
B2: chr1:178670160:178670161:-_ENSMUSG00000057335_ENSMUST00000057037|mus_hu|motif|central (ssRNA)
RNA: GGGAGUUCUACAGUCCGACGAUCUUGAGGUCUUGGAUCACCAGAUCGACCGUUGUUUCCUUCUGGUGUUUUGGAAUGAACGGAUGGAGGAAUCUUUCGGAAGUUGAGGCUUUCAUCAAAAACACGAUCAACCAACUCUUCUCUCAACAGAGGAUUGAGCAUCA
B3: chr4:57314706:57314707:+_ENSG00000128050_ENST00000264221|hu_mus|hu_hu_hu_mus_True|58_88 (ssRNA)
RNA: GGGAGUUCUACAGUCCGACGAUCCAGAAUUUCAAAAAUAGCUUGUGUAGCAUGACUCAUGAUGUCCACUUCAGUCUGGCCUAUAAGAAGGCCAGCAAAACAGAAUUUUGCAGCAAUGAGUUGCUCCUCAGACCACUGUGGAUCCAACAGAGGAUUGAGCAUCA
B4: 29840190_29843829_555_CDS_ENSG00000197321_ENST00000375400|human|control|control (ssRNA)
RNA: GGGAGUUCUACAGUCCGACGAUCGCCGAUGUGGGGGCUGGCAGGGUCGCUGGCUCUCAUGUAUCGAGGGGUGUCUUCCUCCAGCAGGCGGUGAGUCACCAAUCCUGUGCAGCUCUGCAAGAGGAUGGGCUGAGUGUCAUUUUCCAACAGAGGAUUGAGCAUCA
B5: chr7:71034872:71034873:-_ENSMUSG00000052040_ENSMUST00000063694|mus_mus|FALSE|FALSE (ssRNA)
RNA: GGGAGUUCUACAGUCCGACGAUCGGCCAAUUCUCCACAUCAAAAUGAAGAGAGGUCUCUGUAAGAUAACCCAUGUCCAUCCCAAACCCACCCACCACCCAAUACACACUCACGCGCGCGCGCACACACACACACACACACACACAACAGAGGAUUGAGCAUCA
B6: 78614377_78614497_1087_CDS_ENSG00000149256_ENST00000278550|human|control|control (ssRNA)
RNA: GGGAGUUCUACAGUCCGACGAUCGCCGCCGGCAGGGGGCUCUCCGGAGAGCGAGUGGUCCGUGGGGGCCGGGCUGGGGUUGCUCCUCGGCGUGAAGUUGCCCCGGUUCAGGGAGUUAAUGGAGGCCGCGUGGUGCUGGUUGGGCAACAGAGGAUUGAGCAUCA
B7: chr5:128441001:128441002:+_ENSG00000066583_ENST00000173527|hu_hu|motif|central (ssRNA)
RNA: GGGAGUUCUACAGUCCGACGAUCGCACACAUGAGUUUCUACUCCAAAUAAUACAACACUCCUGACUCCGGGAAUCUCUGCGGAUGCCGCUUCUACUUCUGGUAAUACCAUUGAAAACUUGGUCUUUGGAAGUACCAGUUUUACCAACAGAGGAUUGAGCAUCA
B8: chr7:151048522:151048523:+_ENSG00000013374_ENST00000566856|hu_mus|hu_hu_hu_mus_True|68_98 (ssRNA)
RNA: GGGAGUUCUACAGUCCGACGAUCCUGUUUCUUAUUUAUGACAAUUUUGAUGUAAUUUUCUUGAAAUCCAAAGGUUUCAGCUAUUUGACACCUCAGGUCUCUACCAGUGACAUGCAAGCGGGUCUCCAACAAGCUUUUCUUAUCCAACAGAGGAUUGAGCAUCA
B9: 48681835_48685339_445_CDS_ENSG00000162869_ENST00000294952|human|control|control (ssRNA)
RNA: GGGAGUUCUACAGUCCGACGAUCUAUCUUCUUUUGCAGAUCUUCAUCAAAGACACUCUUCUGCUCUUGACUCAACUGAGAAGAAGAUUCUCCACUUUUCUUGUUUUUCUUGCCUCGUGGUUCACUUAGAGCUAGUUCAUCUUGCAACAGAGGAUUGAGCAUCA
B10: 100449551_100449671_332_5pUTR_ENSMUSG00000028532_ENSMUST00000030257|mouse|control|control (ssRNA)
RNA: GGGAGUUCUACAGUCCGACGAUCAAACUUUCCUCGUCUCCUGCGCUCUCGGCUCCACGGCGCGGCGGCUGUAGCUGGAAAACUUAGGGGGCGCCCGGCUGCAGCGCGGGCGCGCGGGCGGCCACCAUCGCCCGGCGGCAGCGGCAACAGAGGAUUGAGCAUCA
B11: chr2:201943701:201943702:+_ENSG00000119013_ENST00000433898|hu_mus|motif|central (ssRNA)
RNA: GGGAGUUCUACAGUCCGACGAUCAUUGCGAGCCCAUGGAUCCCUCAGCCCUCGGGCAGCAAGCUUCUUCUGCACCGUUUCGGAUGGCGUCCCUUCAAUUUUCCACUGUCUGUAAUCUGGAAGUUCCAUUUUACCAUGGCCAUGCAACAGAGGAUUGAGCAUCA
B12: chr17:64801638:64801639:+_ENSG00000154229_ENST00000413366|hu_mus|hu_hu_hu_mus_False|18_18 (ssRNA)
RNA: GGGAGUUCUACAGUCCGACGAUCUAUAUAUAUAUAUACAUAUGUACACAUAUAUAGUAAAACCCUAGUUAAACGUGUAAAGUAGCCAUUCAUUUUUAAAAUUACAUCUACAUUAAAAAAGUAAUCUAUCUGAUAGAGUGCCAGCAACAGAGGAUUGAGCAUCA
B13: 5791108_5791228_6409_CDS_ENSG00000108021_ENST00000328090|human|control|control (ssRNA)
RNA: GGGAGUUCUACAGUCCGACGAUCCGGGUGCCUCCUCAGGCCGUGUGAAGUUCUCAUGGUAUCUUUGAGUUCUUUUGUUAUAGAGAAGUUGGCGUAAGUCCUGAGGAUCCCGUGGAGAUCUCGGAUUUGGACGUAAGGCGGCACCAACAGAGGAUUGAGCAUCA
B14: chr22:19452774:19452775:-_ENSG00000070010_ENST00000399523|hu_hu|hu_hu_hu_mus_False|8_78 (ssRNA)
RNA: GGGAGUUCUACAGUCCGACGAUCCUUCUCAUUGUAGUUGAUAGCAAUCACAUCUCCGGUGGUCAGACAGGCGAAGUUUCUCAAUGCAUUUUCUAAUACCGCUUUAGGGUUGGUAAUAUCCAGGAAGUCAGGGCUCUGAGGCUGCAACAGAGGAUUGAGCAUCA
B15: chr2:20889081:20889082:-_ENSMUSG00000036591_ENSMUST00000173194|mus_hu|FALSE|FALSE (ssRNA)
RNA: GGGAGUUCUACAGUCCGACGAUCUUUCAUUUCAAAUGACAAAGAAGGGACAAAUCCUUUGGAGUCCACAUUGGACGUGGCGGGGAAUGCCACCACACACCCGAAGGGGAAGAAUUCCACAAGCAGGCUCCGAGGAGGGGCAGGCAACAGAGGAUUGAGCAUCA
B16: chr13:100193591:100193592:-_ENSMUSG00000052727_ENSMUST00000064762|mus_hu|motif|central (ssRNA)
RNA: GGGAGUUCUACAGUCCGACGAUCUUUAAACCCUCAUCAUAGUUAGCAGUGCAAAACAUAGACUUAUCAGACAAAAAUCAACGGAAAUGUUAAUUUUGAAAUAAAUAACUAACAUAGAAAAUAAAAUGAGGUCAUUGUUCUCUACAACAGAGGAUUGAGCAUCA
B17: chr12:112501303:112501304:+_ENSMUSG00000021277_ENSMUST00000021706|mus_mus|FALSE|FALSE (ssRNA)
RNA: GGGAGUUCUACAGUCCGACGAUCCCAUCUCUGAGCACGGAUGUUGCUUUCGGAGCGCGCUAGCCGGAUGCAGCAGUAUGACAGGAUGGGAUGCUCGCUGGGGCCUCCUGCCUGCGGCACGGGUCACCUGCCUAUCCCCGGACACAACAGAGGAUUGAGCAUCA
B18: chr5:37680062:37680063:+_ENSMUSG00000029121_ENSMUST00000031004|mus_hu|mus_mus_mus_hu_False|28_58 (ssRNA)
RNA: GGGAGUUCUACAGUCCGACGAUCUUUGGGUGUAGCUGGUACCUCGUACACAGGACCGUCAUACAUGCCCCUGGAAACACUAUGCAAUCCAAAAACCUUAUUCCUGAUCCUGACACGCUGGUACAGGUGCUCCGGGAACGCCUUCAACAGAGGAUUGAGCAUCA
B19: chr19:29101771:29101772:-_ENSMUSG00000024782_ENSMUST00000025696|mus_mus|motif|central (ssRNA)
RNA: GGGAGUUCUACAGUCCGACGAUCAGCAGUAAGGCGCUGUUUAAUGACCUCAAAGGGCACGUUGAGAUUUAUCACUGUGUCGGUCUGAUAAACUUUAUCCAGGGCUUCUGCCUGUGGAAGUGUCCUUGGAAAUCCAUCCAACAGCAACAGAGGAUUGAGCAUCA
B20: chr9:72186818:72186819:+_ENSMUSG00000038535_ENSMUST00000098576|mus_mus|FALSE|FALSE (ssRNA)
RNA: GGGAGUUCUACAGUCCGACGAUCAGUUUUUAUUUCAGAAAGACGUUCAGAAGUUGGGAUACAAACAGAAACUUGCUCUACUAGAACUCGGCAAGAAUGAGUUUCAUGCUGACUUAAGUGUGUAGCCAUAUUAUCUAAGCCAGACAACAGAGGAUUGAGCAUCA
B21: chr12:105540249:105540250:+_ENSG00000136051_ENST00000332180|hu_mus|FALSE|FALSE (ssRNA)
RNA: GGGAGUUCUACAGUCCGACGAUCGUUAUUGAGAUUAUAGAGGUAUCUUGAGACAAAUAUGUGAAUGUUUCUCAUAAUUUCCAGGACAUCGAGUCCCUGCUCCAAAGUCUGGCUAGGAAGAUGUGCCUCUGUCAUAACCAAACCCAACAGAGGAUUGAGCAUCA
B22: chr19:45826695:45826696:-_ENSMUSG00000025220_ENSMUST00000026243|mus_hu|FALSE|FALSE (ssRNA)
RNA: GGGAGUUCUACAGUCCGACGAUCACCAAGUAUAACCACAUCCUUUGGAAAUCCUUCCAUUUUUGCAAUUUCAAAACAUCCUAACUUGCUGUAAAAUUCCAGAAUUCUUUUAUCAUCUGGUCUCACUUCACAGAAAGCUCCCCGCAACAGAGGAUUGAGCAUCA

This is one part of the list.

From paper PMC12136788 come the findings set out here.

For this experiment, the target named is T1, UNK ZnF1-3. The experiment in a line: nsRBNS (natural sequence RNA bind-n-seq); RBNS binding buffer (assumed for nsRBNS): 25 mM Tris pH 7.5, 150 mM KCl, 3 mM MgCl2, 0.01% Triton X-100, 500 ug/ml BSA, 20 U/ml SUPERase-In, 4 C; UNK is unkempt and MSI1 is Musashi-1; names of the RNAs are library labels; protein concentration not given here; high values mean tight binding.
For the molecule B1, the binding signal was found to be 1.22 enrichment R. In the case of B2 it was 0.814 enrichment R. Take B3: the binding signal is 0.91 enrichment R. In the case of B4 it was 0.871 enrichment R.

B5 showed a binding signal of 2.94 enrichment R. To B6 belongs 1.41 enrichment R; to B7, 1.38 enrichment R; to B8, 0.769 enrichment R. In turn, B9 had a binding signal of 0.489 enrichment R. To B10 belongs 1.25 enrichment R. To B11 belongs 0.752 enrichment R.

B12 displayed a binding signal of 1.43 enrichment R. In the case of B13 it was 0.672 enrichment R. B14 registered a binding signal of 0.962 enrichment R.

As for B15, the binding signal was determined as 1.12 enrichment R. B16 came in with a binding signal of 1.3 enrichment R. To B17 belongs 0.84 enrichment R. B18 registered a binding signal of 0.69 enrichment R. As to B19, the binding signal is 0.717 enrichment R. In the case of B20 it was 1.14 enrichment R. For the molecule B21, the binding signal came to 0.81 enrichment R. To B22 belongs 1.04 enrichment R.
